Results reported in patent US8633134B2, “Substituted amidine compounds for combating animal pests” (priority 2008, dated 2014).
Some entries share one result that the patent states for a list of compounds.

Columns and labels:
Type in all cases: in vivo
[1] = test system: Diamond Back Moth (Plutella xylostella); test: Diamond back moth leaf dip test; conditions: 300 ppm; recorded 24, 72, and 120 hours after treatment; in comparison with untreated controls
Experimental: The active compound is dissolved at the desired concentration in a mixture of 1:1 (vol:vol) distilled water:acteon. The test solution is prepared at the day of use and in general at concentrations of […].
Leaves of Chinese cabbage were dipped in test solution and air-dried. Treated leaves were placed in petri dished lined with moist filter paper. Mortality was recorded 24, 72, and 120 hours after treatment.

[2] = test system: Mediterranean Fruitfly (Ceratitis capitata); test: Mediterranean fruitfly microtiter plate diet test; conditions: 2500 ppm; egg and larval mortality after 5 days; in comparison with untreated controls
Experimental: For evaluating control of Mediterranean fruitfly (Ceratitis capitata) the test unit consisted of microtiter plates containing an insect diet and 50-80 C. capitata eggs. The compounds were formulated using a solution containing 75% v/v water and 25% v/v DMSO. Different concentrations of formulated compounds were sprayed onto the insect diet at 5 μl, using a custom built micro atomizer, at two replications.
After application, microtiter plates were incubated at about 28±1° C. and about 80±5% relative humidity for 5 days. Egg and larval mortality was then visually assessed.

[3] = test system: Orchid Thrips (Dichromothrips corbetti); test: Orchid thrips floral-immersion test; conditions: 300 ppm; after 4 days; in comparison with untreated controls
Experimental: Dichromothrips corbetti adults used for bioassay are obtained from a colony maintained continuously under laboratory conditions. For testing purposes, the test compound is diluted to a concentration of 300 ppm (wt compound: vol diluent) in a 1:1 mixture of acetone:water (vol:vol), plus 0.01% vol/vol Kinetic® surfactant.
Thrips potency of each compound is evaluated by using a floral-immersion technique. Plastic petri dishes are used as test arenas. All petals of individual, intact orchid flowers are dipped into treatment solution and allowed to dry. Treated flowers are placed into individual petri dishes along with 10-15 adult thrips. The petri dishes are then covered with lids. All test arenas are held under continuous light and a temperature of about 28° C. for duration of the assay. After 4 days, the numbers of live thrips are counted on each flower, and along inner walls of each petri dish. The level of thrips mortality is extrapolated from pre-treatment thrips numbers.

[4] = test system: Southern Armyworm (Spodoptera eridania); test: Southern armyworm lima bean foliar spray test; conditions: 300 ppm; 4 days after treatment; in comparison with untreated controls
Experimental: (§1) The active compounds were formulated in cyclohexanone as a 10,000 ppm solution supplied in tubes. The tubes were inserted into an automated electrostatic sprayer equipped with an atomizing nozzle and they served as stock solutions for which lower dilutions were made in 50% acetone:50% water (v/v). A nonionic surfactant (Kinetic®) was included in the solution at a volume of 0.01% (v/v).
(§2) Lima bean plants (variety Sieva) were grown 2 plants to a pot and selected for treatment at the 1st true leaf stage. Test solutions were sprayed onto the foliage by an automated electrostatic plant sprayer equipped with an atomizing spray nozzle. The plants were dried in the sprayer fume hood and then removed from the sprayer. Each pot was placed into perforated plastic bags with a zip closure. About 10 to 11 armyworm larvae were placed into the bag and the bags zipped closed. Test plants were maintained in a growth room at about 25° C. and about 20-40% relative humidity for 4 days, avoiding direct exposure to fluorescent light (24 hour photoperiod) to prevent trapping of heat inside the bags. Mortality and reduced feeding were assessed 4 days after treatment, compared to untreated control plants.

[5] = test system: Tobacco Budworm (Heliothis virescens); test: Tobacco budworm cotton plant foliar spray test; conditions: 2500 ppm; 4 days after treatment; in comparison with untreated controls
Experimental: as §1
as §2, with “Cotton” for “Lima bean”, “plants” for “plants (variety Sieva)”, “cotyledon” for “1st true leaf”, “budworm” for “armyworm”

[6] = test system: Boll Weevil (Anthonomus grandis); test: Boll weevil microtiter plate diet test; conditions: 2500 ppm; egg and larval mortality after 5 days; in comparison with untreated controls
Experimental: For evaluating control of boll weevil (Anthonomus grandis) the test unit consisted of 24-well-microtiter plates containing an insect diet and 20-30 A. grandis eggs.
The compounds were formulated using a solution containing 75% v/v water and 25% v/v DMSO. Different concentrations of formulated compounds were sprayed onto the insect diet at 20 μl, using a custom built micro atomizer, at two replications. After application, microtiter plates were incubated at about 23±1° C. and about 50±5% relative humidity for 5 days. Egg and larval mortality was then visually assessed.

[7] = test system: House Fly Adults (Musca domestica); test: House fly adults glass vial contact assay; conditions: 10 ppm; 48 h after treatment; in comparison with untreated controls
Experimental: If not otherwise specified, the tests were conducted as glass vial contact assays. Glass vials (20 ml scintillation vials) were used. Treatment solutions were mixed with technical grade chemicals diluted in acetone. Treatment solutions needed for the assays included generally 1 and 10 ppm (0.01 and 0.1 μg/cm^2, respectively), but optionally also 100 and/or 1000 ppm for first tier vials. As commercial standard, alphacypermethrin, was run at 1 ppm. As solvent control, acetone was used for the assay. Treatment solution was pipetted into the bottom of each vial. Each vial was turned on its side and placed onto a commercial grade hot dog roller without applying heat. The uncapped vials were allowed to roll to allow for the acetone treatment to vent off. After drying, the vials were placed into the compartmented vial shipping boxes. The workstation was prepared by chilling the table and plastic Petri dishes with the inside wall coated with Fluon. A weigh boat of 10% sugar water saturated cotton dental pellets was also prepared. The animal pests were collected into a tube with a rechargeable insect vacuum. The tube of animal pests was placed in a laboratory refrigerator until the animal pests were incapacitated. The animal pests were emptied into chilled Petri dish. A small cotton dental pellet was soaked in water or in 10 wt % sugar water, whereas the excess solution was gently squeezed out. […]

[8] = test system: yellowfever mosquito larvae (Aedes aegypti); test: Larval mosquito water treatment assay; conditions: 1 ppm; 5 DAT (days after treatment); first tier test; in comparison with untreated controls
Experimental: The assay was conducted in 6-well polystyrene plates using one plate per treatment rate. Stock solutions were prepared at 100 and 1000 ppm. Screen rates were at 1 and 10 ppm. Distilled water was added to each well, control wells were treated with acetone. Temephos (Abate technical) was used as the standard at 0.1 ppm. Ten late thirdinstar yellowfever mosquito larvae (Aedes aegypti) in water were added to each well. One drop of liver powder solution (6 g in 100 ml distilled water) was added to each well as a food source daily. Plates were maintained at 22-25° C. and 25-50% RH (relative humidity) and observed daily for dead larvae and pupae at 1, 2, 3, and 5 days after treatment. Dead larvae and all pupae were removed daily. Mortality was defined as an insect incapable of coordinated movement when agitated.

Measured: mortality

Cc1cc(C2=NOC(c3cc(Cl)cc(Cl)c3)(C(F)(F)F)C2)ccc1C(=NO)N(C)C (centres unmarked) [Compound 1-2]
at least 75%: all assays above
